First the molecules themselves.
B1: CPEB3 Ribozyme (parent)
chain: UAACAGGGGGCCACAGCAGAAGCGUUCACGUCGCAGCCCCUGUCAGAUUCUGGUGAAUCUGCGAAUUCUGCUGUAUAUCUC

Among the data in the RNAGym collection of RNA variant scans (doi:10.1093/nar/gkz1192) are self-cleavage values, retold here.

The source gives no read counts; variants with many changes may rest on few reads.

This data set covers variants of B1. As to the kind of experiment: self-cleavage, relative activity (ratio to wild type); higher = more cleavage; in vitro, sequencing. The procedure, abridged: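 Libraries of CPEB3 self-cleaving ribozyme mutants came from rounds of error-prone PCR and carried barcodes, which DNA sequencing matched to variants. In vitro transcription used T7 RNA polymerase at 37°C for 5 hours, with a further 15 min in DNase I before EDTA stopped the reaction; the ribozymes cleaved during both steps. The RNA was reverse transcribed with template switching and sequenced on Illumina. Relative activity is the cleaved/total read fraction of a variant divided by that of the unmutated ribozyme, averaged over three batches with at least 5 reads.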
For C4G C23U U31C, the self-cleavage was found to be 0.35.

As to A3U U25A C40A, the self-cleavage came out at 0.66.

As for A3U C12A A57C, the self-cleavage was 0.46.

As for A3U U25C U48A U49A U78C, the self-cleavage stood at 0.35.

Take A3U G8A A13U C34A U66G: the self-cleavage stood at 0.07.

As to A3U G8C U48C U51C U54C G73A U80C, the self-cleavage worked out at 0.07.

In the case of C4U A13G A28G A35U, the self-cleavage stood at 0.28.

As for A3U G9A U25C A64U U76C, the self-cleavage came out at 0.08.

For A3U U31C A45G U78A, the self-cleavage was determined as 0.41.

With A3U C4A U41A A45U, the self-cleavage was determined as 0.44.

Turning to A3U U43A G46C A57G, the self-cleavage was 0.47.

For C4A G8C G10A C34U C59A U78C, the self-cleavage amounted to 0.05.

With C4G A15U U74A, the self-cleavage was 1.21.

A3U U25C A28G: the self-cleavage came to 0.53.

C4A U26C G33U U41A A57G U78C: the self-cleavage was determined as 0.06.

On to C4A A65G U80C, for which the self-cleavage came to 0.97.

Consider A3U C50U U51G U74C, for which the self-cleavage turned out to be 0.76.

For the variant C4G C17G A45G C59A U72C, the self-cleavage came to 0.04.

Consider A3U G9A U31C U54C, for which the self-cleavage was found to be 0.39.

As for A3U U54A U78A, the self-cleavage amounted to 1.12.

Regarding A3U G6A A21G U43A A45G, the self-cleavage stood at 0.07.

Regarding C4G A35U U60A U80A, the self-cleavage is 0.62.

Consider A3U U41C U49C A64U, for which the self-cleavage worked out at 0.12.

With A3U A57G U72A, the self-cleavage is 0.71.

A3U A47G U54C U67C U78C: the self-cleavage amounted to 0.2.

A3U C32A U69A U72A: the self-cleavage amounted to 0.08.

Regarding A3U G24C C44A, the self-cleavage was determined as 0.15.

For A3U U25C A35G U69G U72G, the self-cleavage was determined as 0.13.

Regarding A3U U26C A56G, the self-cleavage is 0.28.

As for C4A U26C U43C G55A U69A, the self-cleavage turned out to be 0.24.

On to C4A A18G G55C A64G U74A, for which the self-cleavage was found to be 0.97.

With A3U C11U G33A A65G U78C, the self-cleavage amounted to 0.05.

Take A3U G6C A15C A28U: the self-cleavage is 0.63.

For the variant C4G C40U A64G U80A, the self-cleavage turned out to be 0.67.

With A3U G33A U51A A75G U76C, the self-cleavage came to 0.16.

As to A3U G36A U58C U69A U72G U78C, the self-cleavage is 0.1.

As for A3U C40U A65G A77G, the self-cleavage was 0.23.

With C4U A5G A18G A45G U58G U66A U72C, the self-cleavage stood at 0.16.

Take A3U C12G A13U U26C U41C: the self-cleavage is 0.57.

Regarding A3U U25C U41A A45G U60C U67A, the self-cleavage worked out at 0.1.

Regarding C4G A18G G30A U72A, the self-cleavage came to 0.06.

Take A3U U43C U74G U78A: the self-cleavage worked out at 1.03.

On to C4G G16A A18G U43C A57G, for which the self-cleavage was determined as 0.26.

Regarding A3U G7C A20U C39U C71U U78C, the self-cleavage amounted to 0.05.

For C4A G42A U78A, the self-cleavage amounted to 0.2.

A3U U41C U54G: the self-cleavage came out at 0.83.

On to C4G A13U A28G, for which the self-cleavage is 1.1.

In the case of A3U C62U A65G A75G C81U, the self-cleavage came out at 0.24.

As to A3U U60A A64G, the self-cleavage came to 0.67.

For C4U A13C U69A, the self-cleavage was determined as 0.78.

Turning to C4U A13U A15G G16A U26C, the self-cleavage worked out at 0.08.

Turning to A3U U26C A57G, the self-cleavage was 0.28.

With A3U G9A A64U, the self-cleavage worked out at 0.24.

As to A3U G6A A28G A64U, the self-cleavage was 0.08.

For A3U G10A A13G A21G A28G U31C U49C, the self-cleavage was found to be 0.07.

A3U C11U A28G: the self-cleavage was 0.21.

For A3U U25A A35U U60G A65G U69A, the self-cleavage came to 0.06.

Regarding C4G A21G C29A, the self-cleavage turned out to be 0.53.

With A3U U26A G33U C50G U69A U80A, the self-cleavage was 0.07.

With A3U G24A A45G, the self-cleavage was determined as 0.59.

Consider A3U G46C U67G U74C, for which the self-cleavage was 0.35.

With A3U G19U G46A U58C U76C, the self-cleavage is 0.08.

A3U G10U U41C C62G U72G: the self-cleavage is 0.16.

Consider A3U C4U A5G U26C G73C, for which the self-cleavage is 0.71.

Consider C4G A13U G16U A28G, for which the self-cleavage came out at 0.28.

For C4G A20G U51C, the self-cleavage was 0.86.

With C4G A13G A45G, the self-cleavage was 0.3.

Consider A3U U60C U69C U74C, for which the self-cleavage was found to be 0.29.

For A3U G10A U31C C32U A65G, the self-cleavage was determined as 0.05.

As for A3U U41A U69C, the self-cleavage was 0.07.

For A3U G53C U74A, the self-cleavage is 1.15.

Take A3U C34G U41C U66G: the self-cleavage is 0.08.

As to C4A C12U U76C U80A, the self-cleavage came out at 1.27.

With C4G A18G U60A U69C, the self-cleavage worked out at 1.02.

With A3U G6A A21U U25C U41A U51C, the self-cleavage is 0.07.

As to A3U G9U U66C, the self-cleavage worked out at 0.24.

As to A3U A47G U80C, the self-cleavage came to 1.22.

As to A3U C34G U43C A64U U72C, the self-cleavage turned out to be 0.12.

Regarding C4A U26A A47C A75G, the self-cleavage turned out to be 0.13.

For C4U A5G C11A A64U U69C U74A, the self-cleavage amounted to 0.22.

For C4G A13U U31C U78C, the self-cleavage amounted to 1.04.

Take A3U G8A A13U U48C A57G U66C G73A: the self-cleavage was determined as 0.05.

Consider C4A G8A A45U A64G, for which the self-cleavage was found to be 0.25.
